Among all 310,000 compounds or so, about 2,200 (0.71%) showed an effect of 50% or more. The effect is printed as a negative number. The list shows a part of the results.
Target: human ether-à-go-go-related gene (hERG) potassium channel (human, UniProt Q12809)
Test: primary screen, population patch clamp on CHO cells stably expressing hERG

human ether-à-go-go-related gene (hERG) potassium channel, sequence (Q12809 whole entry, looked up): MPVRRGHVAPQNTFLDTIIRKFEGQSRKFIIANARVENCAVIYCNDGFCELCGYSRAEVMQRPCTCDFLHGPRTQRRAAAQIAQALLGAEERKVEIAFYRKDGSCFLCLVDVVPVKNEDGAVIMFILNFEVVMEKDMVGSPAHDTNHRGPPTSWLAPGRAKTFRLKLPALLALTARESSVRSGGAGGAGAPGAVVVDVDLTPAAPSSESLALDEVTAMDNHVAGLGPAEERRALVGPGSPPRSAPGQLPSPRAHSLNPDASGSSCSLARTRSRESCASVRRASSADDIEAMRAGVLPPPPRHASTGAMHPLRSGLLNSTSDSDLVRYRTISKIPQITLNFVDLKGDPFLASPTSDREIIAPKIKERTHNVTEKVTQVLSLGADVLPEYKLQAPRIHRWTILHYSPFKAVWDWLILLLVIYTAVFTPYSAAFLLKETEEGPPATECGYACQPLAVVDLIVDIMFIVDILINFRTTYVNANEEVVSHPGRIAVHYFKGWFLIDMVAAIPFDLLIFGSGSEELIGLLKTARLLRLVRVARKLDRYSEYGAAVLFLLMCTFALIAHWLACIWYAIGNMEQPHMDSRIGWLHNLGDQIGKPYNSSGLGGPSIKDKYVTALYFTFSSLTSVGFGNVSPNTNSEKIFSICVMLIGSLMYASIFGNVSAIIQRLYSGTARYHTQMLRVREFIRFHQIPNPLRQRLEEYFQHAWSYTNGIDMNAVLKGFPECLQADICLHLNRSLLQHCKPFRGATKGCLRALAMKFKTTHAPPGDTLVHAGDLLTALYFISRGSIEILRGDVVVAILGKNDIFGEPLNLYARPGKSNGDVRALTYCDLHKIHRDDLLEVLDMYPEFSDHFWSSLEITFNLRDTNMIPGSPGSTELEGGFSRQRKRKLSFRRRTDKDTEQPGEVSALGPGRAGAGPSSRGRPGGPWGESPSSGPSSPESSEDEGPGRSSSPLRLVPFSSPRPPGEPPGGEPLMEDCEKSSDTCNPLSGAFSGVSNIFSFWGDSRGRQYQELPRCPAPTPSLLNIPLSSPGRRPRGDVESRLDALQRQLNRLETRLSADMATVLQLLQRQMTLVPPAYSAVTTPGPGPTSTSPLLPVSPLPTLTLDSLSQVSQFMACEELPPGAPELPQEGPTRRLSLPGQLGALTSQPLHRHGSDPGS

Compound | hERG current change (%, negative = inhibition) at 1uM [%]
CCCC1C(c2ccco2)NC(c2ccco2)CC1(C)O.O=C(O)C(=O)O (centres unmarked) | 2.61
CCOc1cc(/C=C/C(=O)O)ccc1OCCO | 8.1
CC(C)CCNC(=O)C(CC(C)C)N(Cc1ccc2c(c1)OCO2)C(=O)c1snc(C(N)=O)c1N (centres unmarked) | 3.45
CCOc1ccccc1NC(=O)NS(=O)(=O)c1ccc(C)cc1 | 13.3
COc1ccc(C)cc1NC(=O)CN(C)S(=O)(=O)c1ccc2c(c1)CCCN2C(C)=O | 11.6
CC(C)OCCCN1CN(S(=O)(=O)c2cccc(Cl)c2)c2nc3ccccc3nc21 | 1.59
COc1ccc(C(c2nnnn2Cc2ccccc2)N2CCN(c3nc4ccccc4s3)CC2)cc1 (centres unmarked) | 9.85
CCOc1ccccc1CNC(=O)CCNC(=O)Cn1ccc2ccccc2c1=O | 3.23
CS(=O)(=O)Nc1ccc(N2CCCCC2)c(Cl)c1 | 5.33
O=C(CSc1cccs1)NCCc1ccccc1 | 13.4
O=C(CN1C(=O)CSC1=O)c1ccccc1 | 6.5
C/C=C/c1ccc(OCC(O)CNCC(c2ccc(OC)cc2)N(C)C)c(OC)c1.O=C(O)C(=O)O (centres unmarked) | 6.2
CCOc1ncccc1C(=O)OCC(=O)Nc1nnc(-c2ccccc2)o1 | 0.21
CCn1c(SCc2nc3scc(-c4ccccc4)c3c(=O)[nH]2)nnc1-c1cccs1 | -2.8
Cc1cccc(N2C(=O)c3cccc4c(N5CCCCC5)c([N+](=O)[O-])cc(c34)C2=O)c1C | 6.41
O=C(COc1ccc(Cl)cc1)N/N=C/CCc1ccccc1 | 3.02
CC1Oc2ccccc2N(CC(=O)NCc2cccs2)C1=O (centres unmarked) | 5.16
Cc1cccc(C)c1NC(=O)CN(C)C(=O)c1ccc2c(=O)n3c(nc2c1)CCC3 | 11.9
O=[N+]([O-])C1C(c2ccccc2)=NOC1c1ccccc1O (centres unmarked) | 12.8

Compound | hERG current change (%, negative = inhibition) at 1uM [%]
O=C(CCCN1C(=O)/C(=C/c2cccs2)SC1=S)Nc1ccc(C(=O)O)cc1 | 9.33
O=C(Nc1ccc2c(c1)CCC2)c1ccc(Cl)nc1 | 1.39
COc1cccc(N2CCN(C(=O)CCCCCn3c(=S)[nH]c4cc5c(cc4c3=O)OCO5)CC2)c1 | 17.8
Cc1ccc(-c2nn(-c3ccccc3)cc2CN(C)C(=O)CCC(=O)O)cc1C | 15.3
Cc1cc2cc(C)c3nnc(SCC(=O)Nc4ccc(S(=O)(=O)N5CCCCC5C)cc4)n3c2cc1C (centres unmarked) | 13.2
O=C(N/N=C/c1cc2c(cc1Br)OCO2)c1c[nH]c2ccccc12 | 16.1
CCn1cc([N+](=O)[O-])c(C(=O)N2CCCCCC2)n1 | 12.7
Cc1ccc(-c2noc(CCC(N)=O)n2)cc1 | 0.49
COc1ccc(CCCc2nnc(SCC(=O)NN)o2)cc1 | 13.9
COc1ccc(/C=N/Nc2ccccn2)c(OC)c1OC | 8.66
O=C(c1ccccc1)c1c2c(cc3sc4ccccc4[n+]13)-c1cccc3cccc-2c13.[Br-] | -47.1
CCCC(=O)NNC(=O)CCC(=O)NCc1ccccc1 | 14.5
O=C(NCCc1ccccc1)c1ccc2c(c1)OCCCO2 | 16.7
CN(CCO)c1cc(N(C)CCO)c([N+](=O)[O-])cc1[N+](=O)[O-] | 11.8
Cc1nnc(N/N=C/C2CC=CCC2)[nH]c1=O (centres unmarked) | 9.52
Cn1c(NC(=O)C[n+]2cc(-c3ccc(Cl)c(Cl)c3)n3c2CCC3)cc(=O)n(C)c1=O.[Cl-] | 13.4
Cc1cc(=O)[nH]c(N/N=C/c2ccc(N(C)C)cc2)n1 | 3.37
Cc1ccc(NCC(O)C(O)C(O)CO)cc1C (centres unmarked) | 13.8
Nc1nccnc1C(=O)OCC(=O)N1CCN(S(=O)(=O)c2ccc(Cl)cc2)CC1 | -10.1

Compound | hERG current change (%, negative = inhibition) at 1uM [%]
CC1CCCCC1NC(=O)CSc1nnc(-c2ccccc2)n1N (centres unmarked) | 11.7
O=C(Nc1ccc(F)cc1)c1cc(-c2ccccn2)nc2c(Cl)cccc12 | 12.7
COc1cccc(OCC(=O)Nc2ccncc2)c1 | 11.9
CC1CCC2(CC1)N=C(N)Nc1nc3ccccc3n12 (centres unmarked) | -7.03
Cc1cc2[nH]c(=O)c(=O)[nH]c2cc1S(=O)(=O)N1CCN(c2ccccc2F)CC1 | 9.75
Cc1ccc(-n2nnnc2-c2cccs2)cc1[N+](=O)[O-] | 8.88
NC(=O)NOCc1cccc(Cl)c1 | 12.7
O=c1c2ccccc2cnn1Cc1ccc(Cl)c(Cl)c1 | 14.6
CN(c1ccccc1)c1nc(-n2ccnc2)nc(-n2ccnc2)n1 | -21.3
Cc1noc(C)c1C(=O)Nc1sc(C)c(-c2ccccc2)c1C#N | 5.63
CCOC(=O)CNC(=O)CNC(=O)c1ccc(OC)cc1 | 10.3
CN(C)C(/C=C/Nc1ccc(Br)cc1)=C(C#N)C#N | -3.22
O=C(c1ccc2c(c1)OCO2)N1CCC2(CC1)Oc1ccc(Cl)cc1C(=O)C21CC(c2cccnc2)=NO1 (centres unmarked) | -1.76
COc1ccc2[nH]c(=O)c(CN(C(=O)C(C)C)c3ccccc3OC)cc2c1 | 8.48
CC(=O)NCCNC(=O)C1CCCCN1S(=O)(=O)c1ccccc1 (centres unmarked) | 0.532
COc1cccc(C(=O)OCC(=O)c2c[nH]c3ccccc23)c1OC | 9.28
CC(=O)n1cc(/C=N/NC(=O)c2cccc(O)c2)c2ccccc21 | 13.7
Cc1ccc(S(=O)(=O)N(CC(=O)NCc2ccccn2)c2ccc(Cl)cc2)cc1 | -0.861
